Reference: publication doi:10.1101/2023.07.25.550453 (bioRxiv, 2023)
Like-named read-outs stand apart in the source and are kept apart here. Values belong to the binder of their own block, whether it stands above or below them.

Columns and labels:
[1] = target: T1, nuclear cap-binding complex (CBC: CBP80ΔNLS + CBP20), human (human, UniProt Q09161 20-790; P52298 1-156); assay: SEC
T1 sequence 1: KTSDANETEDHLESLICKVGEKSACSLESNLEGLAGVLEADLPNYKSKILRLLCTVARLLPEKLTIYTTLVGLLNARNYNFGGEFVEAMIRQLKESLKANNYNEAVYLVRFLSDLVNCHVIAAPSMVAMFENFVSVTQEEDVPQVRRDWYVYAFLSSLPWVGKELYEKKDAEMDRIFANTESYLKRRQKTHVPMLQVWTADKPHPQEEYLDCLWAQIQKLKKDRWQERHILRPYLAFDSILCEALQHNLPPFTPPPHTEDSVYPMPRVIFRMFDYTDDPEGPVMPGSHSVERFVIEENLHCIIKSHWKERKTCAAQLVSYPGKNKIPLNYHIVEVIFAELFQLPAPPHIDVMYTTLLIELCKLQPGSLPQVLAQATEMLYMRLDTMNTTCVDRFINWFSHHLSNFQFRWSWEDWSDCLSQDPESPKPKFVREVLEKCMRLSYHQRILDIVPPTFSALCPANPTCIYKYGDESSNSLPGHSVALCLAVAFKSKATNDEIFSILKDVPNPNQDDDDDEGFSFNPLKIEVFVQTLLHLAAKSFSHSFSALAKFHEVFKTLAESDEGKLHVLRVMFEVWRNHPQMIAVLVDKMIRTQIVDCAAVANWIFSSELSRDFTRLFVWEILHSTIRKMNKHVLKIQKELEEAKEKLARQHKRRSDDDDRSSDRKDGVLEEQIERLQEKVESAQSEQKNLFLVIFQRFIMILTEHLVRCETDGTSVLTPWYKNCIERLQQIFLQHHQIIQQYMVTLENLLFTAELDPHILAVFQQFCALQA
T1 sequence 2: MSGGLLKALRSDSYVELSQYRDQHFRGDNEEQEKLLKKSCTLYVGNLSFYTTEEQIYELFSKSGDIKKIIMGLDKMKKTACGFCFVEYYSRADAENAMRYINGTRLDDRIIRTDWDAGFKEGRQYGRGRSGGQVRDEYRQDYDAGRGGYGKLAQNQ

[2] = target: T1, nuclear cap-binding complex (CBC: …); assay: SEC; remark: listed apart in the source

binding result [1]: binds
B1: full-length PHAX E9R (natural protein)
chain: not shown

binding result [2]: binds
B2: full-length PHAX W118E (natural protein)
chain: not shown
